System: NCI-H322M
Details: Homo sapiens, 48 h

SMILES | GI50
COc1cc(-c2n[nH]nc2-c2cc3ccccc3s2)cc(OC)c1OC | < 0.01 µM
COc1cc(OC)cc(-c2n[nH]nc2-c2c[nH]c3ccccc23)c1 | 40.7 µM
COc1ccc(-c2n[nH]nc2-c2csc3ccccc23)cc1OC | 7.79 µM
COc1cc(-c2nn(C)nc2-c2cc3ccccc3s2)cc(OC)c1OC | 1.26 µM

— ChEMBL document CHEMBL3751743, “Synthesis and anti-cancer screening of novel heterocyclic-(2H)-1,2,3-triazoles as potential anti-cancer agents” (Medchemcomm, 2015)
